# From PMC4336329 (PLoS ONE, 2015)
# Among all 310,000 compounds or so, about 2,200 (0.71%) showed an effect of 50% or more. The effect is printed as a negative number. The list shows a part of the results.
# Target: human ether-à-go-go-related gene (hERG) potassium channel (human, UniProt Q12809)
# Test: primary screen, population patch clamp on CHO cells stably expressing hERG
# Chain of human ether-à-go-go-related gene (hERG) potassium channel (Q12809 whole entry, looked up): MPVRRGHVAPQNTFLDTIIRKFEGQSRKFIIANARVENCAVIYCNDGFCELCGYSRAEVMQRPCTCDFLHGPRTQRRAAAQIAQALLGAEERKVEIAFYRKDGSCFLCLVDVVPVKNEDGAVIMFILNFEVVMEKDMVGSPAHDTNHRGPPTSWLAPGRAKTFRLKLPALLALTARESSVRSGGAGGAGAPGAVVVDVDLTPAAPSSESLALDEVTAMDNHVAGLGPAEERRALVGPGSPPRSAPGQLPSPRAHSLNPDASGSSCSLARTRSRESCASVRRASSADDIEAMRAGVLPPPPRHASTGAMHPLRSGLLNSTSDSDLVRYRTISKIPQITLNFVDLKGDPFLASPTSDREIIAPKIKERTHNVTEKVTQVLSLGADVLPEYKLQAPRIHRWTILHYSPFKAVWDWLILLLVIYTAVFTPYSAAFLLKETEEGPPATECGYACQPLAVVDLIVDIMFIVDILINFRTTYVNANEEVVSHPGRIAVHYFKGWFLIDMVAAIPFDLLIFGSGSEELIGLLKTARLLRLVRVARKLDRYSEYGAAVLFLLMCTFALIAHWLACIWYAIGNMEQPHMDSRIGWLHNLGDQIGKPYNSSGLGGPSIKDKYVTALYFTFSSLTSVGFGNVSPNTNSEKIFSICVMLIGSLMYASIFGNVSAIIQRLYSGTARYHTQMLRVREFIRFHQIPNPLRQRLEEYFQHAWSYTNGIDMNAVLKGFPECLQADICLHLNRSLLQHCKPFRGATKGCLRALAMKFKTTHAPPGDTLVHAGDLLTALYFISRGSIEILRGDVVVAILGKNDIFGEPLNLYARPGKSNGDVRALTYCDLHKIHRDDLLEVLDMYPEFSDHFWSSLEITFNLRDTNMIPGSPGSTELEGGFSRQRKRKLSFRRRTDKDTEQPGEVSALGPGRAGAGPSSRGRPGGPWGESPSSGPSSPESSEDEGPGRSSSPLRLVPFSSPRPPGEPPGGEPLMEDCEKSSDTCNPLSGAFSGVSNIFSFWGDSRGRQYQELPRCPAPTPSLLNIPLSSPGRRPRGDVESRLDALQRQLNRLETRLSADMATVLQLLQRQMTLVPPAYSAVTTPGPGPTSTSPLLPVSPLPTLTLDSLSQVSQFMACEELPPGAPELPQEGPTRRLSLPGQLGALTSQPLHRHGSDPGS
row,Structure (SMILES),"hERG current change (%, negative = inhibition) at 1uM"
1,O=[N+]([O-])c1cccc(-c2nnc(SCc3cccnc3)o2)c1,-25%
2,COc1ccc(C2=CC(=O)C[C@H](c3ccc(F)cc3)C2)cc1F,0.56%
3,COc1cc(/C=C/C(=O)OCC(=O)NC(=O)NC(C)(C)C)ccc1OCC#N,5.93%
4,Cc1ccc(SCC(=O)NCCC2=CCCCC2)cc1,7.24%
5,COC(=O)c1ccccc1NC(=O)CN1C(=O)C2CCCN2c2ncc(Cl)cc21 (stereo not shown),2.06%
6,Cc1cc(C)c2sc(N(CCCN(C)C)C(=O)c3ccc(S(=O)(=O)N(C)Cc4ccccc4)cc3)nc2c1.Cl,1.75%
7,O=C1N/C(=C/c2cccs2)C(=O)N1Cc1ccc(F)cc1,11.2%
8,CCC(C)NCCOc1cccc(Br)c1.O=C(O)C(=O)O (stereo not shown),5.61%
9,O=C1/C(=C\c2ccc(O)cc2)SC(=S)N1c1cccnc1,15.9%
10,Cc1ccc(S(=O)(=O)N2CCN(C(=O)Cn3nc(C)c([N+](=O)[O-])c3C)CC2)c(C)c1,3.75%
11,Cc1c(-c2ccc(Br)cc2)[n+](=O)c2c(n1[O-])CCCCC2,10.8%
12,O=C(COc1cc(Cl)c(Cl)cc1Cl)NC(=O)NC1CCCC1,7%
13,CCOC(=O)c1c(S(=O)(=O)NCC(=O)N2CCN(c3ccccc3)CC2)c(C)n(C)c1C,6.76%
14,Cc1cc(C)cc(NC(=S)NCc2ccc(F)cc2)c1,6.82%
15,CCc1cccc(CC)c1NC(=S)NCCc1c(C)[nH]c2ccccc12,7.68%
16,COc1cccc(CNC(=O)c2cc(=O)[nH]c3ccc(S(=O)(=O)N4CCOCC4)cc23)c1,15.3%
17,CC(OC(=O)c1ccccc1Oc1ccccc1)C(=O)NC1CC1 (stereo not shown),13.8%
18,COc1ccccc1C(=O)C1CCCN(C(=O)c2cccc(-n3cccn3)c2)C1 (stereo not shown),9.07%
19,O=C(CNC(=O)c1ccc(Br)cc1)NCCc1nc2ccccc2[nH]1,1.53%
20,NS(=O)(=O)c1ccc(CNC(=O)c2ccc(S(=O)(=O)C(F)F)cc2)cc1,6.17%
21,CC(CCc1ccccc1)NC(=O)C1CCCN(c2nnc(-n3cccc3)s2)C1 (stereo not shown),-7.23%
22,CC1CCN(C(=O)CSc2nnc3ccc(-c4cccnc4)nn23)CC1,-2.88%

row,Structure (SMILES),"hERG current change (%, negative = inhibition) at 1uM"
1,CCOC(=O)C1=C(C)OC(N)=C(C(=O)OC)C12C(=O)Nc1ccc(Br)cc12 (stereo not shown),14.6%
2,CN(C)C(=O)COC(=O)[C@H](Cc1ccccc1)NC(=O)c1ccco1,12.3%
3,Cc1ccc(S(=O)(=O)N(C)N=O)cc1,19.1%
4,Cl.Nc1ccc(CCN2CCCC2)cc1,11.8%
5,O=C(CSc1nc2ccsc2c(=O)n1Cc1ccc(C(=O)O)cc1)NCc1ccco1,5.71%
6,Cc1ccc(S(=O)(=O)CC(=O)N2CCN(c3cccc(C(F)(F)F)c3)CC2)cc1,-8.8%
7,COc1cc(/C=C/C(=O)N2C(=O)c3cccc(N)c3C2=O)cc(OC)c1OC,8.6%
8,CCOc1cc(/C=N/NC(=O)COc2nc(C)cc(COC)c2C#N)ccc1O,1.99%
9,COc1ccc(N2C(=O)CC(Sc3nc4c(cc3C#N)CCC4)C2=O)cc1 (stereo not shown),19.8%
10,Cc1nc(C(=O)NC(C)C)nn1-c1cc(Cl)cc(Cl)c1,19.8%
11,N/C(COc1cccc(C(F)(F)F)c1)=N\NC(=O)c1cccnc1Oc1ccccc1,6.91%
12,O=C(CCc1nnc(-c2ccsc2)o1)NCc1ccccc1OC(F)(F)F,6.48%
13,Cc1ccc(S(=O)(=O)NCCC(=O)NNC(=O)COc2ccccc2Cl)cc1C,5.56%
14,O=C(N/N=C/c1c(F)cccc1Cl)c1cc(C2CC2)[nH]n1,16.2%
15,COc1ccc2[nH]c(=O)c(CN(CCCN3CCOCC3)C(=O)NCc3ccccc3)cc2c1,12%
16,CS(=O)(=O)N1N=C(c2cccs2)CC1c1ccccc1 (stereo not shown),-2.23%
17,COc1ccc(C(=O)Nc2cc(=O)[nH]c3ncnn23)cc1,2.56%
18,Cc1cc(C)nc(/N=C2\NC(=O)CC(C(=O)O)N2c2ccc(Oc3ccccc3)cc2)n1 (stereo not shown),12.9%
19,c1ccc(OCc2nn3c(-c4ccco4)nnc3s2)cc1,-11.9%
20,COc1ccc2[nH]cc(C(=O)CN3CCCC(C)(C)C3)c2c1,-0.323%
21,COc1cccc2c3c(c(C)nc12)CCN3c1ccccc1,-8.76%
22,CCOc1ccccc1Oc1coc2cc(OCC(=O)O)ccc2c1=O,22.1%

row,Structure (SMILES),"hERG current change (%, negative = inhibition) at 1uM"
1,COc1ccc(OC)c(CN2CCN(C(=O)CNC(=O)c3ccc(C(C)(C)C)cc3)CC2)c1,-1.22%
2,CCCCn1cc(C(C)(C)C)c(C#N)c1NC(C)=O,12.6%
3,CCN(c1ccccc1)S(=O)(=O)c1ccc2ccccc2c1,14.6%
4,COc1ccc(CC(=O)c2ccc(OC)c(OC)c2)cc1,5.35%
5,COc1ccc(-c2[nH]ncc2CN2CCN(Cc3cccs3)CC2)c(F)c1,1.54%
6,COC(=O)C1=C(c2ccc(C(C)=O)cc2)C[C@@H]2CC[C@H]1N2C(=O)N1CCOCC1,11.4%
7,COc1ccccc1N1CCN(C(=O)c2cc(-c3ccc(C)cc3)on2)CC1,6.17%
8,O=C(NCC1(N2CCCCC2)CCCCC1)C1CC(=O)N(c2ccc3c(c2)OCCO3)C1 (stereo not shown),14.3%
9,CN(C)c1ccc(/C=C/C=C2/SC(=S)N(c3ccccc3)C2=O)cc1,13.9%
10,O=C(O)c1cccc(NC(=O)c2ccc(Cl)c(S(=O)(=O)N3CCCCCC3)c2)c1,18.9%
11,CC(C)(C)NC(=O)c1cccc(NC(=O)c2ccco2)c1,7.94%
12,COc1cccc(NC(=S)Nc2cccc3ccccc23)c1,14%
13,Cc1cc(C(=O)CCC(=O)Nc2ncccc2O)c(C)s1,5.56%
14,O=C(Cn1c(CCCO)nc2ccccc21)Nc1ccccc1-c1ccccc1,11.2%
15,CC1(C)Cc2c(sc3nc(SCC(=O)N4CCOCC4)nc(N)c23)CO1,-2.97%
16,O=C(O)c1ccc(NS(=O)(=O)c2cccc(C(=O)Nc3ccc(Br)cc3)c2)cc1,8.18%
17,CCn1c(C)nc2cc(-c3nnc(-c4c(-c5ccccc5)noc4C)o3)ccc21,3.39%
18,CC(NC(=O)C1CCC1)c1ccccc1 (stereo not shown),10.4%
19,COC(=O)C(CC(=O)c1ccc(C)cc1)n1nc(C)cc1C (stereo not shown),12.9%
20,CC(=O)Nc1ccc(NC(=O)C2CCCN(S(=O)(=O)c3ccc(Cl)cc3)C2)cc1 (stereo not shown),17%
21,Cc1cccc(Nc2ncccc2C(=O)NCc2cccs2)c1C,-1.22%
22,CN1C[C@@H]2C(c3ccc(C(F)(F)F)cc3)C3(c4ccccc4)CC2(C3)[C@H]1c1ccccc1 (stereo partly shown),8.58%

row,Structure (SMILES),"hERG current change (%, negative = inhibition) at 1uM"
1,CCN1C(=O)/C(=C/c2cn(C)nc2C)SC1=S,3.2%
2,CCCC(=O)Nc1cccc(-c2cn3cccnc3n2)c1,5.74%
3,O=C(Nc1ccc2c(c1)OCO2)C1CC1(Cl)Cl (stereo not shown),7.49%
4,Cc1ccc(C(=O)Nc2nc3c(s2)CCCC3)o1,6.5%
5,CCOC(=O)[C@H]1[C@H]2COc3ccc(C)cc3[C@@H]2N2C(=O)c3cc(Cl)ccc3NC(=O)[C@@]12C,7.62%
6,O=C(CN1C(=O)C2CC=CCC2C1=O)Nc1nc2ccccc2s1 (stereo not shown),4.22%
7,O=C(COC(=O)c1nc(Cl)ccc1Cl)Nc1ccc(Cl)cn1,9.36%
8,CNS(=O)(=O)c1cccc(C(=O)OCC(=O)/C=C2/N(C)c3ccccc3C2(C)C)c1,20.6%
9,Cc1ccc(O)c(C2=NCCNC(C(F)(F)C(F)F)=C2)c1,3.12%
10,Cc1cccc(NC(=S)N(CCCN2CCOCC2)C(C)c2cc3ccccc3o2)c1C (stereo not shown),1.24%
11,CN(C)C(=O)NC1C=CS(=O)(=O)C1 (stereo not shown),6.99%
12,O=C(Nc1ccccc1C(=O)Nc1ccc2c(c1)OCO2)c1cccs1,5.03%
13,Cc1c(Cl)c(C(=O)N2CCCC2)nn1C,11.3%
14,O=C(c1ccc(Br)s1)N1CCN(Cc2ccc3c(c2)OCO3)CC1,-5.73%
15,CCc1ccccc1N1C(=O)CC(Sc2nccc(C)n2)C1=O (stereo not shown),7.89%
16,Cc1ccccc1-n1nnnc1Sc1nnnn1-c1ccccc1,-2.15%
17,CSc1ccc(/C=N/NC(=O)c2ccc(O)cc2)cc1,14.4%
18,CCSc1nc2ccc(C)cc2cc1C#N,4.67%
19,O=C(COC(=O)COc1ccccc1[N+](=O)[O-])NC1CCCCC1,-1.3%
20,Cc1ccc2nc(-c3cccc(NS(C)(=O)=O)c3)cc(-c3ccccc3)c2c1,11.9%
21,CS(=O)(=O)N1CCCC(C(=O)Nc2cccc(F)c2)C1 (stereo not shown),14%
22,COc1cccc(OC)c1NC(=O)CN1CCC(NC(=O)c2cccc(F)c2)CC1,6.24%
